Target: FlAsH-tagged Met1-diUb (UniProt P0CG48 fragment; P0CG48 fragment, Lumio Green (FlAsH) on the C-terminal WCCPGCC motif)
Assay: FP

B1: OTULIN C129A W96A (enzyme)
chain: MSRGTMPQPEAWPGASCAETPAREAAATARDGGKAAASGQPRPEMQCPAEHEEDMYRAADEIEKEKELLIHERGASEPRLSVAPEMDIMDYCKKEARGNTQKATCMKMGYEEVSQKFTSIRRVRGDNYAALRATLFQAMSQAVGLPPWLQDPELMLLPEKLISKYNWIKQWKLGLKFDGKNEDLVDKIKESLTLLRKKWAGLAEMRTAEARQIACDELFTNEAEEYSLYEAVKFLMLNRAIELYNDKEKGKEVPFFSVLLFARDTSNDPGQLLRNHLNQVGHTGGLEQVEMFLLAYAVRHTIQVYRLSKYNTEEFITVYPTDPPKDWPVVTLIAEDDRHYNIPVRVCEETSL
B1 was tested, and the Kd was 24.5 µM.

B2: OTULIN C129A Y91F (protein)
chain: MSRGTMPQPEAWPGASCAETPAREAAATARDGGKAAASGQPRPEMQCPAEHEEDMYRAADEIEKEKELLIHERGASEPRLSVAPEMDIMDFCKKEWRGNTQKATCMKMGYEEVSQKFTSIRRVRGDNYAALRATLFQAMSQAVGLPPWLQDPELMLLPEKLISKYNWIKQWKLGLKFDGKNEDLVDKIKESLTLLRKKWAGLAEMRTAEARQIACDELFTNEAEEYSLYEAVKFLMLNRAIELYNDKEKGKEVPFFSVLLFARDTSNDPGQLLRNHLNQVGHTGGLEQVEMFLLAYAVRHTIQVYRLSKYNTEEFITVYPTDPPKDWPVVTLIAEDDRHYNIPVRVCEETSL
B2 showed a Kd of 0.772 µM.

B3: OTULIN C129A E314R (enzyme)
chain: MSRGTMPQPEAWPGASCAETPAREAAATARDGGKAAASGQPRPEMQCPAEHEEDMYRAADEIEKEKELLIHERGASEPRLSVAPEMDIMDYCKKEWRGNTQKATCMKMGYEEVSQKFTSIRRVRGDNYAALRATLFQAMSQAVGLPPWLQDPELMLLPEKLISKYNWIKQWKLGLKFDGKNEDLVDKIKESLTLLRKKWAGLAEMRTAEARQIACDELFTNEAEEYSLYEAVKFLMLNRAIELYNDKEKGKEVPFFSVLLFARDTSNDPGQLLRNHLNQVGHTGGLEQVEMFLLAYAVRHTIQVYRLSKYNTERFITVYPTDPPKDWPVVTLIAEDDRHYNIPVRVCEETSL
Work on B3 yielded a Kd of 27.7 µM.
